# Paper PMC6451091
# This is one part of the list. For some assays here: At the low end of the ranking, values are background and their order means little. For some assays here: The protein was read in a cell extract, so binding may be indirect.
# What was measured:
# Conditions in all cases: 20 mM HEPES pH 7.9, 100 mM NaCl, 1 mM DTT, 0.2 mg/mL BSA, 0.02% Triton X-100, 2% milk, 0.4 mg/mL salmon testes DNA; 1 h; temperature not stated; high values mean tight binding; double strand, one strand shown; sequences stand for … in GCCTAGCAC…GTGCTAGGTCTTGATTCGCTTGACGCTGCTG
# [1] = biological target: PU.1 (IVT) (UniProt P17947); assay: protein-binding microarray (PBM)
# [2] = biological target: PU.1 (endogenous, THP-1 nuclear extract) (UniProt P17947); assay: nuclear extract protein-binding microarray (nextPBM)
# [3] = biological target: T1, FLI1 (endogenous, THP-1 nuclear extract) (UniProt Q01543); assay: as above
# T1 sequence: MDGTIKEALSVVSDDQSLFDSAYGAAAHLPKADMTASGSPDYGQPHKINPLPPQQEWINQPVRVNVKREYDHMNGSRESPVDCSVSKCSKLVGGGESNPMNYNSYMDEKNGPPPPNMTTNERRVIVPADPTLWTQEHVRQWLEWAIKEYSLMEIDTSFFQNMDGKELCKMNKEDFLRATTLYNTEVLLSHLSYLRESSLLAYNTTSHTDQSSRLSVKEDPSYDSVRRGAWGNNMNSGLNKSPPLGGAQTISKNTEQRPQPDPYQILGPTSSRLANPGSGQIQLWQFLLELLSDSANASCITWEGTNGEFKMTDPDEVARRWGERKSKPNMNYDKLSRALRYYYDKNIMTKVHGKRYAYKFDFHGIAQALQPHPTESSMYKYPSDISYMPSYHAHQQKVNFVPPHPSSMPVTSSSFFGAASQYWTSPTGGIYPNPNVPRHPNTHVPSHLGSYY
# [4] = test system: PU.1 (endogenous, THP-1 nuclear extract) + IRF8 (endogenous, THP-1 nuclear extract); assay: as above
Sequence,binding signal [1] [z-score],binding signal [2] [z-score],binding signal [3] [z-score],binding signal [4] [z-score]
TGGCGCTGTGCAGACTTGGC,-0.704,-0.29,-0.966,0.386
CCCCTGTGGGTGAGTCAGAG,-0.469,-0.455,-0.748,-0.385
TTCACGCCATTCTCCTGCCT,0.0523,0.373,0.317,0.5
GGACACACCCAAATTACAAA,-0.319,0.0226,-0.555,0.516
AGGGGACGCATTCTAACCAC,-0.366,-0.612,-0.774,0.404
GAGGGACGAGTCTACAGGGG,-0.767,-0.391,-0.323,-0.0288
TGCTGTTATCAAGAGATGAA,0.474,0.22,-0.343,-0.78
CCACGGCCTACACTGCCCCC,0.555,-0.365,-0.68,2.74
AGTCCCCTCACACATTTCCC,-0.438,-0.176,1.72,-0.0177
CTTGGCATCCGAAACATTAA,0.542,-0.335,0.98,-0.957
TGCATTGCCTGGCCGGGTGA,-0.116,-0.119,-0.414,0.659
GACGGGGAAGGACATGGAGC,-0.464,0.0923,0.41,0.484
CCAAACACTGCCTGAAAGTC,-0.33,-0.291,0.0963,0.154
TAGCCGCCTCTTGGACGGGC,-0.609,-0.308,-0.592,1.22
TCTCCCAAATTTTCCGGCAG,-0.214,-0.273,1.81,-0.133
GAATTACCTCATCTTAAAAC,0.168,0.23,-0.532,-0.661
GGCCACGTTACTTTCTGCCC,-0.698,-0.185,-0.47,-0.104
AAGAGTGATAAGGAAGTGCC,4.08,4.43,2.01,-0.785
CCGGGTTCAAGCGATTCTCC,-0.84,-0.532,-0.633,-0.477
AAGGGAAGATGTTTTGTAAT,0.314,0.416,0.248,-0.288
CTATTGTCACAGTTGCTAGG,-0.162,-0.306,-0.413,-1.49
GAAAGGACTGCGTGAAACTG,-0.533,-0.788,0.178,3.59
AAGTGGCATATTTAAAAATC,-0.398,-0.346,-0.525,0.627
TTTTTAGCTGCGTGAAACTA,-0.239,-0.567,-0.501,2.96
GCCTCCGTTCGGCCCCGCCC,-0.709,-0.242,0.406,-1.3
GAGCCAGAACTAGCCAAAGA,-0.446,-0.272,-0.153,-0.546
AATTTTCCTTACGCAAATCT,-0.382,-0.58,0.5,0.387

Sequence,binding signal [1] [z-score],binding signal [2] [z-score],binding signal [3] [z-score],binding signal [4] [z-score]
GAAATCAGCAAAGCCAAGCC,-0.64,-0.513,-1.47,-0.686
TTTGGAACTGCCTGAAACCA,0.0102,-0.345,0.0717,0.283
GGTAGAGCTGCGTGAAAGTG,-0.785,-0.345,-0.438,1.15
TCCAGATGTTCTTCACCCAT,-0.52,-0.136,-0.257,0.393
GGGAACCAGAAAGTGAAAGA,-0.311,0.00858,0.33,2.39
GTTTGCTTACTGCCGGGACA,-0.568,-0.663,0.0825,0.0253
TGCTGACGTGGGGGTGGTTG,-0.353,-0.155,-0.525,0.357
AGAAGAACTGCGTGAAAGTG,-0.752,-0.185,-0.329,1.88
TGCAGGGTGGGAAGATGGCT,0.0611,-0.0327,0.225,-0.349
GGGCCAAGCAGGCATTAAAC,-0.0908,-0.307,-0.975,-0.72
TTTAGATTTTTTAAGTGAGT,-0.283,-0.474,-0.363,-0.59
TAAAATTGAAAATGCTAAAT,-0.408,-0.52,-0.33,-0.336
CCAGCAGGAACAAAGCAGTG,0.163,1.05,0.707,0.292
AAGCACAGGGCCAGCCCTAT,-0.486,-0.193,-1.45,0.333
GCAGACAGTGATTTAGGCTG,-0.454,-0.256,-0.148,0.385
ATTAGGAAGTGCTTTTGGGA,2.18,1.97,1.64,-1.69
AGTAGCAGTCCTGTCATGCG,-0.457,-0.113,-0.257,-0.473
CCATGCATACAGAAGAGTGT,-0.374,-0.383,-0.0451,0.315
GGTTTAAAACGGGAAAACGA,0.661,0.728,1.32,-1.5
GGTGAATTATATGCTCTGTA,-0.231,-0.434,-0.299,1.13
ACAGGAAGCTTGGTGGACAC,0.407,0.78,3.4,1.37
AGCTTTAAGAGCCAGTGCTC,-0.158,-0.37,-1.29,-0.82
AAATGCTTTCCCCCAAATTA,-0.241,-0.353,-0.098,-0.785
AGTGTGGCATAAAATGTCAA,0.0531,-0.253,-0.672,-1.93
CATCTTCTCAAATGTTGCAA,0.442,-0.271,-0.553,-1.53
GAGATCGTGCCATTGCACTC,-0.38,-0.208,-0.312,-1.32
